Reference: US20210188948A1

Target: DENV2 recombinant E protein (Native Antigen) (Dengue virus serotype 2)
Assay: ELISA, plate-coated DENV2 rE

| Substance | Binding DENV2 rE (OD450 fold change over negative controls) |
| --- | --- |
| mouse monoclonal antibody 3H5-1 | 5.3 fold |
| WNV-specific mAb CR4354 (antibody) | 1 fold |
